The record followed here is article PMC9119685.

Chains of the proteins cited; added tags and fusions are not shown.
UniProt Q14258: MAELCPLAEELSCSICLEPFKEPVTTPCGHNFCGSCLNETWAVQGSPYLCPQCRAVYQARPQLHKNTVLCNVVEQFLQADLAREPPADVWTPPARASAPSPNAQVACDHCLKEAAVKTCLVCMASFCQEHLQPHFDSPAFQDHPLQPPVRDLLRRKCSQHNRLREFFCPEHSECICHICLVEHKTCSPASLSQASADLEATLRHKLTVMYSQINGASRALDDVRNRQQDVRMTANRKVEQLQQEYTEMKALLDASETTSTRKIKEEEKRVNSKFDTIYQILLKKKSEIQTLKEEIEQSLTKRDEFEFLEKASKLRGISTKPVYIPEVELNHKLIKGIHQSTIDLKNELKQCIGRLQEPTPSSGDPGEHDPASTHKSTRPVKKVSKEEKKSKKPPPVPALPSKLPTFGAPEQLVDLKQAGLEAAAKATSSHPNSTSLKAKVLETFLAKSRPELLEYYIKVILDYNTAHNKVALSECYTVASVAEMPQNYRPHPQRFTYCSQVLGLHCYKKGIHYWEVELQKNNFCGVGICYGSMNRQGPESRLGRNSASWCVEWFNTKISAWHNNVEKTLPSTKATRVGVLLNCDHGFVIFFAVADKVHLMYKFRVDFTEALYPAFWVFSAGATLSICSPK
UniProt Q05127: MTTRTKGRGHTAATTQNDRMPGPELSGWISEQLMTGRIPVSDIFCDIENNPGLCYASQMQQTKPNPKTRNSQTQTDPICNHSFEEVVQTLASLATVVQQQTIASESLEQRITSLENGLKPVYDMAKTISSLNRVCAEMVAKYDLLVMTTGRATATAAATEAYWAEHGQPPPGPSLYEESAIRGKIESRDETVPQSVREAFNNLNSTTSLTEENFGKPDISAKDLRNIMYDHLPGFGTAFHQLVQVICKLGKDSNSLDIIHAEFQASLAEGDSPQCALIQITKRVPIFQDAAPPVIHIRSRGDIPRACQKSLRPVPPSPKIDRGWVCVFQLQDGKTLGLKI
UniProt P18272: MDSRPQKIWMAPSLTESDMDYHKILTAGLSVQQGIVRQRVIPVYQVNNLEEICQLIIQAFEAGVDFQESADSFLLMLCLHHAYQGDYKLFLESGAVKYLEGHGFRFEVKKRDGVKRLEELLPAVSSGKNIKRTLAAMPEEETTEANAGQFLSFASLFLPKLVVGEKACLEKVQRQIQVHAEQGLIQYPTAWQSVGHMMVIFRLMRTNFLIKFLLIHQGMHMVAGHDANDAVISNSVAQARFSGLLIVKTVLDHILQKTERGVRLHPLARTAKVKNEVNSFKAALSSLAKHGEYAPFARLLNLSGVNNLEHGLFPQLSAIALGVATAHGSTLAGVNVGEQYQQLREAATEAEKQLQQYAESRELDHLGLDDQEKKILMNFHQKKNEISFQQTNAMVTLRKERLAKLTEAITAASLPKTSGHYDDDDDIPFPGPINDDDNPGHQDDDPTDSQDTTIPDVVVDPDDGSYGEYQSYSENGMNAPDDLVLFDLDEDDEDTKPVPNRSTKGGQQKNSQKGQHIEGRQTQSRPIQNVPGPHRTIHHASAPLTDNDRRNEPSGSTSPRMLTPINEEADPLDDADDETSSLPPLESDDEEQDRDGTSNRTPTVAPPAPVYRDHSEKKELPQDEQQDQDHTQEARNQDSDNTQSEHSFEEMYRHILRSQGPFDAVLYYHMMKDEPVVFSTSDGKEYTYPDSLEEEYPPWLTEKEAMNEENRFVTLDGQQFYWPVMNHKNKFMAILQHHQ

These are yes or no findings as the source states them, for the method shown. In cells and extracts the contact can be indirect. Some results given as binding are weak or reduced against the parent protein; the word gives no strength.

What all share (assay): co-IP
The target in experiment [1] is tripartite-motif family member 25 (TRIM25), wild type (human) (UniProt Q14258).
In experiment [2] the target is Ebola virus VP35 (Ebola virus (EBOV, species Zaire ebolavirus)) (UniProt Q05127).
For experiment [3], the target named is Ebola virus nucleoprotein (NP) (Ebola virus (EBOV, species Zaire ebolavirus)) (UniProt P18272).

For the substance “Ebola virus nucleoprotein (NP) (from UniProt P18272 1-739)”, in experiment [1], the binding result is “binds”.
In the case of “zinc-finger antiviral protein, long splice variant (ZAP-L) (from UniProt Q7Z2W4-1 1-902)”, the binding entry in experiment [1] is reported as “binds”.
As to “tripartite-motif family member 25 (TRIM25), wild type (from UniProt Q14258 1-630)”, the binding result in experiment [2] and in experiment [3] was “binds” in each case.
